This is an account of results in PubChem BioAssay AID1347073 (National Center for Advancing Translational Sciences (NCATS), 2019).

The structures appear in SMILES notation. Hit rate of the full screen: of about 45,000 compounds, about 200 (0.44%) were called active. Another 7% or so got no clear call; they are omitted. Calls follow the shape of the dose curve; as a rule, active = well fitted activation curve with a large enough effect; inconclusive = small, poorly fitted or top-dose-only effect; inactive = no such curve, though single readings can be large or run the other way. The list shows a part of the results.

The test is described as follows: qHTS of TDP-43 Inhibitors: NCGC Sytravon Library Screen. Also: 0% is about no effect; nearly all actives have a fitted effect of over 55% in size. To be noted: yeast TDP-43 toxicity rescue, BacTiter-Glo growth, 24 h; series mostly up to 46.1 µM; growth rescue (activation): at the top concentration. The method, boiled down: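 TDP-43-expressing yeast, pregrown in raffinose, seeded at OD600 0.02 in galactose medium with compound for 24 hr at 30 deg C. Growth read by BacTiter-Glo luminescence, so rescue of toxicity appears as activation.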
Background: Quantitative high-throughput screening tests each substance at several concentrations.
For the molecule `CCn1c(C)nc2cc(C(=O)N/N=C(\C)c3ccc(N4CCOCC4)cc3)ccc21`, the “growth rescue (activation)” value is inactive: 15.8%.

As to `CC1=NNC(=O)C1CCC(=O)N/N=C/C=C/c1ccccc1` (stereo not drawn), the “growth rescue (activation)” value is inactive: 1.91%.

As for `Cc1ccc(S(=O)(=O)N(C)Cc2ccccc2)cc1C(=O)N1CCCCC1`, the “growth rescue (activation)” value was inactive: -25.5%.

Take `Cc1ccc(S(=O)(=O)Nc2c(C)nc3nc(C)[nH]n3c2=O)c(C)c1`: the “growth rescue (activation)” value was inactive: -0.82%.

`O=C(C1CC(=O)N(c2ccccc2)C1)N1CCN(c2ccc(F)cc2)CC1` (stereo not drawn): the “growth rescue (activation)” value is inactive: 4.62%.

As for `Oc1ccc(NCc2ccccc2OCc2ccccc2Cl)cc1`, the “growth rescue (activation)” value was inactive: 9.06%.

Take `Cc1ccc(SCCC(=O)NCCSCc2ccco2)cc1`: the “growth rescue (activation)” value was inactive: 28.9%.

As for `CCOc1ccc(S(=O)(=O)N(C)CC(=O)NC2CCCC2)cc1`, the “growth rescue (activation)” value was inactive: 13.8%.

Regarding `COc1cccc(NC(=O)C2Cc3ccccc3CN2C(=O)c2ccco2)c1` (stereo not drawn), the “growth rescue (activation)” value was inactive: -3.63%.

For `O=C(CN1CCN(Cc2ccccc2)CC1)Nc1cccc(Br)c1`, the “growth rescue (activation)” value was inactive: 19.2%.

Take `CN(C)S(=O)(=O)c1ccc(NC(=O)Cc2ccc(S(=O)(=O)N3CCOCC3)s2)cc1`: the “growth rescue (activation)” value was inactive: -8.96%.

As for `CCOc1ccc(/C=N/Nc2cc(C)nc(N3CCOCC3)n2)cc1`, the “growth rescue (activation)” value was inactive: 13.6%.

`CC(=O)c1csc(-c2ccccc2)n1`: the “growth rescue (activation)” value was inactive: 7.21%.

As for `Cc1ccc(CNC(=O)CCC2CCCN(C(=O)c3ccc4c(c3)OCO4)C2)o1` (stereo not drawn), the “growth rescue (activation)” value is inactive: 2.39%.

On to `CCCc1cc(CN(C)C(=O)CC2C(=O)NCCN2Cc2ccccc2C)[nH]n1` (stereo not drawn), for which the “growth rescue (activation)” value was inactive: 13.6%.

As for `Cc1cc2oc(C(=O)NCc3ccccc3)cc(=O)c2cc1C`, the “growth rescue (activation)” value is inactive: -19.7%.

For `COc1ccc(C(=O)Nc2nc(-c3ccc([N+](=O)[O-])cc3)c(-c3ccccc3)s2)cc1`, the “growth rescue (activation)” value was inactive: -1.13%.

With `Cc1ccsc1/C=C1\Oc2cc(OCC(=O)c3ccccc3)ccc2C1=O`, the “growth rescue (activation)” value was inactive: -0.248%.

As to `CC(C)(C)c1ccc(C(=O)NCC(=O)OCc2ccc([N+](=O)[O-])cc2)cc1`, the “growth rescue (activation)” value was inactive: 9.97%.

With `O=C1CN(C(=O)CSc2ccc(-c3ccc(F)cc3)nn2)c2ccccc2N1`, the “growth rescue (activation)” value is inactive: -13.6%.

For the molecule `Cc1ccc(C(=O)OCC(=O)NC(C)c2ccccc2)s1` (stereo not drawn), the “growth rescue (activation)” value is inactive: 13.8%.

On to `COc1ccc2c(c1)Cc1sc(NC(=O)c3ccc(Cl)cc3)nc1-2`, for which the “growth rescue (activation)” value is inactive: 34%.

For the molecule `CC(NC(=O)c1cccc2ccccc12)c1ccc2c(c1)CCCC2` (stereo not drawn), the “growth rescue (activation)” value is inactive: 23.7%.

With `CCC1(c2ccc(F)cc2)NC(=O)N(CC(=O)N2CCN(C(=O)c3ccco3)CC2)C1=O` (stereo not drawn), the “growth rescue (activation)” value is inactive: 14.6%.

Consider `O=C(NNC1CC(=O)N(c2ccc3c(c2)OCCO3)C1=O)c1ccc(Cl)cc1` (stereo not drawn), for which the “growth rescue (activation)” value is inactive: 8.56%.

As for `N#Cc1cccc(Nc2c3c(nc4ccccc24)CCC3)c1`, the “growth rescue (activation)” value is inactive: 5.63%.

Take `Cc1cc(NC(=O)CSc2nnc(-c3ccccc3Cl)o2)no1`: the “growth rescue (activation)” value is inactive: 7.18%.

As to `CCOc1ccccc1CNC(=O)CCCN1C(=O)COc2ccc(C)cc21`, the “growth rescue (activation)” value was inactive: 26.4%.

As to `Cc1nnc(SCC(=O)NC2CCCC(C)C2C)n1N` (stereo not drawn), the “growth rescue (activation)” value was inactive: 0.329%.

On to `CCOc1ccc(NC(=O)c2ccc(NCC(=O)N3CCCCCC3)cc2)cc1`, for which the “growth rescue (activation)” value was inactive: 1.73%.

Turning to `COC(=O)c1cccc(CSc2nnc(-c3ccco3)n2-c2ccccc2)c1`, the “growth rescue (activation)” value is inactive: 25.2%.

Turning to `COc1ccccc1CC(=O)NC1CC(C)(C)NC(C)(C)C1`, the “growth rescue (activation)” value is inactive: 33%.

As to `CCOc1ccc(NC(=S)N2CCC(N(C)CCN3CCOCC3)CC2)cc1`, the “growth rescue (activation)” value is inactive: 1.42%.

Turning to `COc1ccc(CCNC(=O)C2CCN(c3nccc(C)n3)CC2)cc1`, the “growth rescue (activation)” value was inactive: -5.93%.

Turning to `O=C(Nc1cccnc1Cl)c1cc(-c2ccc(O)cc2)on1`, the “growth rescue (activation)” value is inactive: 16.2%.

Regarding `Cc1ccc2c(c1)C(O)(CC(=O)/C=C/C=C/c1ccccc1)C(=O)N2` (stereo not drawn), the “growth rescue (activation)” value is inactive: 11.6%.

On to `Cc1cccc(OCCCSc2nc(-c3ccc(C(C)(C)C)cc3)nc3cc(=O)[nH]n23)c1C`, for which the “growth rescue (activation)” value was inactive: 7.28%.

As for `CCn1cc(C(=O)NCCCN2CCCC2)c(=O)c2cc(S(=O)(=O)N3CCc4ccccc4C3)ccc21`, the “growth rescue (activation)” value is inactive: -15%.

As for `Cc1ccc(-c2nc(-c3cccnc3)sc2CC(=O)Nc2ccc3nc(C)sc3c2)cc1`, the “growth rescue (activation)” value is inactive: 4.39%.

In the case of `CCOc1ccc(NC(=O)Cn2sc3nc(C)cc(C)c3c2=O)cc1`, the “growth rescue (activation)” value is inactive: 19.6%.

Take `Cc1ccccc1NC(=O)Cn1nnc2sc3c(c2c1=O)CC(C)(C)OC3`: the “growth rescue (activation)” value was inactive: 13.3%.

Regarding `CCN(CC(=O)NCc1cccs1)C(=O)c1ccc(S(=O)(=O)N(C)c2ccccc2)cc1`, the “growth rescue (activation)” value is inactive: -4.68%.

For the molecule `CCOC(=O)c1c(NC(=O)CSc2nncs2)sc(C)c1-c1ccccc1`, the “growth rescue (activation)” value is inactive: 18.9%.

Take `Nc1c(C(=O)NCCc2ccccc2)sc2nc(N3CCOCC3)c3c(c12)CCCC3`: the “growth rescue (activation)” value was inactive: 23.8%.

On to `CC(C)n1nnnc1SCC(=O)Nc1ccccc1F`, for which the “growth rescue (activation)” value was inactive: 11.9%.

For `FC(F)Oc1ccc(N=C2SCC3CCCCN23)cc1` (stereo not drawn), the “growth rescue (activation)” value is inactive: 7.69%.

Consider `CC(=O)c1cccc(CN2CCC(C(=O)Nc3ccc(-c4cccc(C)c4)cc3)CC2)c1`, for which the “growth rescue (activation)” value was inactive: 19%.

`Cc1ccccc1NC(=O)CCOc1ccccc1`: the “growth rescue (activation)” value is inactive: 31.2%.

For the molecule `O=C(Cc1c[nH]c2ccccc12)Nc1ccccc1N1CCOCC1`, the “growth rescue (activation)” value was inactive: -3.86%.

On to `CCCC(O)(CCC)C(=O)NN(C(=O)OC)c1ccccc1`, for which the “growth rescue (activation)” value was inactive: 7.42%.

For the molecule `Clc1ccc(CNC2CCN(Cc3ccccc3)CC2)cc1`, the “growth rescue (activation)” value was inactive: 2.69%.

Take `CCOC(=O)C1(C)CCN1C(=O)CSc1ccccc1` (stereo not drawn): the “growth rescue (activation)” value is inactive: 6.77%.

As for `COc1ccc(C2c3ccc(O)cc3Oc3ncn4nc(-c5ccccn5)nc4c32)cc1OC` (stereo not drawn), the “growth rescue (activation)” value is inactive: 22.1%.
